pIC50: −log10 of the molar value.
Key:
Histone deacetylase 3 = Histone deacetylase 3 (Homo sapiens, UniProt O15379)
[1] = biological target: T1, Protein deacetylase HDAC6 (Homo sapiens, UniProt Q9UBN7)
T1 sequence (Q9UBN7 whole entry): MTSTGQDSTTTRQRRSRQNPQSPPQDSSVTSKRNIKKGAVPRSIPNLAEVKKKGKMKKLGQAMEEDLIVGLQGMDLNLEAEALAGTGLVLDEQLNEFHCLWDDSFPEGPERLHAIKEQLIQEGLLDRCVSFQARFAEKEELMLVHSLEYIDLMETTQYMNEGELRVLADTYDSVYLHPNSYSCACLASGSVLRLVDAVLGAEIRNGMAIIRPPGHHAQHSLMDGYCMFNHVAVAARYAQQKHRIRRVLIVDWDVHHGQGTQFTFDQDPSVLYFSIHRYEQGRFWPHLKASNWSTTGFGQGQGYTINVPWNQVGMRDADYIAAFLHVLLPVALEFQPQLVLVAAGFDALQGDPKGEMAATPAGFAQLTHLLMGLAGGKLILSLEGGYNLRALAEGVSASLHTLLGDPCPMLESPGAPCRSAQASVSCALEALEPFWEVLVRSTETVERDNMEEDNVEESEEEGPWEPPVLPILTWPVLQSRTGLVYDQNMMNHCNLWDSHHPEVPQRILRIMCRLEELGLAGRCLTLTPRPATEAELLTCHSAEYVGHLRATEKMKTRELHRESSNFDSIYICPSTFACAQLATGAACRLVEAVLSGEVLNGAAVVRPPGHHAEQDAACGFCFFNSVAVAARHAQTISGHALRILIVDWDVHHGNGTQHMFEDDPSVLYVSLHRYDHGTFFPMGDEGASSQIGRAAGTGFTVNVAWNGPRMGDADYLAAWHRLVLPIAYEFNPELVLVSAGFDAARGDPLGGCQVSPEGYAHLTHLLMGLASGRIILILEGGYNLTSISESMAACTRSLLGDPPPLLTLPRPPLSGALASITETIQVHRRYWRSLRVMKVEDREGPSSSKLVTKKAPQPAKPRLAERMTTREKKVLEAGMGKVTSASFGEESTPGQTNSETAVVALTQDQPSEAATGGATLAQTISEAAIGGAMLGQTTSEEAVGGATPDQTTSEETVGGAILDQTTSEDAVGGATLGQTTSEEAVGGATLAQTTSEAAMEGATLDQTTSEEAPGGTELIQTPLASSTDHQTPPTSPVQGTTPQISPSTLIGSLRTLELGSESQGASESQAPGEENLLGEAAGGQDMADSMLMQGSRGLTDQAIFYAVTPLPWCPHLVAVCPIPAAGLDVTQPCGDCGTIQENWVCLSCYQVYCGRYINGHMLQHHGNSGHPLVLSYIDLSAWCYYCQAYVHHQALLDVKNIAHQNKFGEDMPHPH

in vivo [2] = conditions: KM, mouse, po, 20 mg/kg
in vivo [3] = conditions: KM, mouse, po, 20 mg/kg; remark: listed apart in the source
Histone deacetylase 1 = Histone deacetylase 1 (Homo sapiens, UniProt Q13547)
Chain of Histone deacetylase 1 (Q13547 whole entry): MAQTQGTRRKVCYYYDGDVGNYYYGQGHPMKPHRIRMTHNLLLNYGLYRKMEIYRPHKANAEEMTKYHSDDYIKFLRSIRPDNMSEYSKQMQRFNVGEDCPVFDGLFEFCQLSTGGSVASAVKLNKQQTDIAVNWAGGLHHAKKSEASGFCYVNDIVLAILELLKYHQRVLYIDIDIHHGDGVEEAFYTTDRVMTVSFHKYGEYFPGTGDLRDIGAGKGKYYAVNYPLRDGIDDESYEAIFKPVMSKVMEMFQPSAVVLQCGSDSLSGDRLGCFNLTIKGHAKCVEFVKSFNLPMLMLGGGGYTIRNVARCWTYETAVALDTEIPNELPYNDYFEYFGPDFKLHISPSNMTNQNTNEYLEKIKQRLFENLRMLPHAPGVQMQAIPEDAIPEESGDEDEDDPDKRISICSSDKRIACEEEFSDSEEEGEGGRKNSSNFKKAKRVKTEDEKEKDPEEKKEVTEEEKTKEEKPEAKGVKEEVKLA

Chain of Histone deacetylase 3 (O15379 whole entry): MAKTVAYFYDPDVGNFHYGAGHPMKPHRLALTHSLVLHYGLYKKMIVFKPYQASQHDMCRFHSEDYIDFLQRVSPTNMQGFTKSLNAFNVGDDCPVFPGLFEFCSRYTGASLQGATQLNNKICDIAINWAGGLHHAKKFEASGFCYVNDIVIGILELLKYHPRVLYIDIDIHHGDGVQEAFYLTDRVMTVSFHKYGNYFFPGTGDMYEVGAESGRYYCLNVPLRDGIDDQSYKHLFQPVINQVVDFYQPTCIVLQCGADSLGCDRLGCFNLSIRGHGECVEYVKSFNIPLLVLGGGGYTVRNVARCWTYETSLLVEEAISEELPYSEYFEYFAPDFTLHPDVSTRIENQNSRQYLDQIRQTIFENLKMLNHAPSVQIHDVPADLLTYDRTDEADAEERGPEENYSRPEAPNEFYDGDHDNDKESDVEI

Row | Structure (SMILES) | pIC50 [1] | pIC50 (Histone deacetylase 1) | other results
1 | CCCCCCCC(=O)SCC/C=C/[C@@H]1CC(=O)NCc2nc(cs2)-c2nc(cs2)C(=O)N[C@@H](C(C)C)C(=O)O1 | 4.83 |  | pIC50 (Histone deacetylase 3): 4.77
2 | O=C(CCCCNC(=O)c1nc(-c2nccs2)sc1C1CC1)NO [BISTHIANOSTAT] |  |  | bioavailability (in vivo [2]): 119%; Cmax (in vivo [3]): 7040 ng/mL
3 | CC(C)Cc1sc(-c2nccs2)nc1C(=O)NCCCCC(=O)NO |  | 7.30 | 
4 | CCCCCCCC(=O)SCC/C=C/[C@@H]1CC(=O)NCc2nc(cs2)C2=N[C@@](C)(CS2)C(=O)N[C@@H](C(C)C)C(=O)O1 [LARGAZOLE] | 4.94 |  | pIC50 (Histone deacetylase 3): 6.61
5 | CCc1sc(-c2nccs2)nc1C(=O)NCCCCC(=O)NO |  | 7.52 | 
6 | CC(C)/C=C/c1sc(-c2nccs2)nc1C(=O)NCCCCC(=O)NO |  | 8.00 | 
7 | CC(C)=Cc1sc(-c2nccs2)nc1C(=O)NCCCCC(=O)NO | 6.74 |  | 
